Measured values published in PubChem BioAssay (NCI).
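These data come from cells grown in 96-well plates and exposed to compound for 48 hours at five concentrations. GI50: concentration for 50% inhibition of growth. TGI denotes the concentration required for complete inhibition of growth.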

Test system: NCI-H322M lung
Experiment: NCI anticancer screen, dose series, 48 h

Row | SMILES | GI50 [µM] | TGI [µM]
1 | O=c1cc(-c2ccccc2)[nH]c2c1CCCC2 | 3.97 | > 100
2 | O=C1C=CC(=O)c2c1ccc1c3ccccc3n(Cc3ccccc3)c21 | – | > 100
3 | NC1CCCCC1NCCNC1CCCCC1N (configuration not stated) | – | > 100
4 | COc1ccc(N2C(=O)[C@@H](N=[N+]=[N-])[C@@H]2[C@H]2COC(C)(C)O2)cc1 | – | > 100
5 | CC1CCCC(C#N)(NOC2=NCCN2)C1 (configuration not stated) | 32.4 | > 100
6 | CN1CCN(Cc2ccc(NC(=O)c3[nH]ncc3Nc3ncnc4[nH]ccc34)cc2)CC1 | 0.381 | 2.03
7 | CC(C)C1(NC(=O)C2CC3c4cccc5[nH]cc(c45)CC3N(C)C2)OC2(O)C3CCCN3C(=O)C(Cc3ccccc3)N2C1=O (configuration not stated) | – | > 100
8 | CC1=C(CO)C(=O)O[C@@H]([C@@H](C)[C@H]2CC[C@H]3[C@@H]4C[C@H]5O[C@]56[C@@H](O)C=CC(=O)[C@]6(C)[C@H]4CC[C@]23C)C1 | – | 6.32
9 | CC(=O)OCC1OC(SC2=NC(=O)CS2)C(OC(C)=O)C(OC(C)=O)C1OC(C)=O (configuration not stated) | – | > 100
10 | COc1c(C)c(C/C=C(\C)CCCC(C)CCCC(C)CCCC(C)C)c(OC)c2ccccc12 (configuration not stated) | – | > 100
11 | CCCCC#Cc1c(I)n(C2OC(CO[Si](C)(C)C(C)(C)C)C3OC(C)(C)OC32)c(=O)n(C(=O)c2ccccc2)c1=O (configuration not stated) | 15.7 | 30.1
12 | Cc1cc(=O)[nH]c(N/N=C/c2ccccc2O)n1 | 3.57 | > 100
13 | COC(=O)c1c2c(cc3c1CC1(Cc4cc5c(c(C)c4C1)CCC5)C3)CCC2 (configuration not stated) | – | > 100
14 | N/N=C(/N)SCCCCCCCCCCS/C(N)=N/N | – | > 100
15 | Cc1cc(C)nc(NS(=O)(=O)c2ccc(NNc3c4ccccc4nc4c(C(=O)Nc5ccc(S(=O)(=O)Nc6cc(C)on6)cc5)cccc34)cc2)n1 | – | > 100
16 | COc1cc(Cl)c(CC(=O)c2c[nH]c3ccccc23)cc1OC | – | > 100
17 | CCN(CC)CCCNCc1cc(-c2ccccc2)nc2cc(Cl)ccc12 | 10.1 | 26.4
18 | COc1cc(C)cc(C(=O)/C=C/c2ccccc2)c1O | – | 47.6
19 | CC/C=C/c1cc2c(cc1O)CCC1C2CC[C@@]2(C)C1CC[C@@H]2O (some centres not stated) | – | 6.79
20 | COc1cc2c3c(n(C)c(=O)c2cc1OC)-c1cc2c(cc1/C3=C\CCCCCBr)OCO2 | – | 82.2
21 | COc1cc(C2c3cc4c(cc3OC(O)C2C)OCO4)cc(OC)c1OC (configuration not stated) | – | > 100
22 | CC(=O)/C=C/c1ccccc1 | – | > 100
23 | COc1ccc(NC(=O)CC(=O)N/N=C(\C)c2cc3ccccc3oc2=O)cc1 | – | > 100
24 | O=c1c2ccccc2oc2ccccc12 (tested in a mixture with another compound) | – | > 100
25 | O=Nc1c(-c2c(O)[nH]c3ccc(I)cc23)[nH]c2ccccc12 | – | > 31.4
26 | C/C(=N\Nc1nc2ccccc2[nH]1)c1ncccn1 | – | > 100

Row | SMILES | GI50 [µM] | TGI [µM]
27 | Nc1nc(Cl)nc2c1ncn2C1OC(CO)C(O)C1F (configuration not stated) | 0.434 | > 92.5
28 | Cc1cc(=O)[nH]c(NNC(C#N)c2ccccc2O)n1 (configuration not stated) | – | > 100
29 | CN1CCN(C(=O)c2ccc(NC(=O)Nc3ccc(-c4nc(N5CCOCC5)c5cccn5n4)cc3)cc2)CC1 | 0.0361 | 2.22
30 | O=C1N2CCC[C@H]2CS1(=O)=O | – | 42
31 | O=c1[nH]cc(N=Cc2cc(Cl)ccc2O)c(=O)[nH]1 | – | > 100
32 | O=c1cc(N2CCOCC2)n2c(ccc3ccccc32)n1 | – | > 100
33 | CC12CCC(=O)C(O1)C1C(=O)c3ccc4c(ccc5ccccc54)c3C(=O)C12 (configuration not stated) | 7.11 | 17.8
34 | O=C1c2ccccc2C2(c3ccc(F)cc3)NCCN12 (configuration not stated) | – | > 100
35 | CC(CCc1nc2ccccc2s1)(c1ccc(O)cc1)c1ccc(O)cc1 | – | 35.2
36 | Cc1cc(S(=O)(=O)Nc2nc3cscc3c(=O)n2N)c(S)cc1Cl | – | > 100
37 | COc1cc2nc(N3CCC[C@H](NC4=CC(=O)c5ccccc5C4=O)C3)nc(N)c2cc1OC | 1.9 | 3.83
38 | C=C(C(=O)OC)[C@@H]1CC2OC1C(=O)C(C)CCC/C(C)=C/CC[C@@]2(C)O (some centres not stated) | > 100 | > 100
39 | Cc1ccc(S(=O)(=O)OCCC2CN(C(=O)OCc3ccccc3)C(C)(C)O2)cc1 (configuration not stated) | – | > 100
40 | CCOC(=O)CCc1cn2cc(Br)nc(OC)c2n1 | – | > 100
41 | CCCCCCCC(=O)[O-].CCCCCCCC(=O)[O-].N.N.N.N.[Co+3].[O-][Cl+3]([O-])([O-])[O-] | > 100 | > 100
42 | O=C1CC(c2ccsc2)n2cccc21 (configuration not stated) | – | > 100
43 | COc1ccc(C2NN=C3c4ccccc4CCC32)cc1 (configuration not stated) | 44.2 | > 100
44 | COc1ccc(/C=c2\[nH]c3nc(=O)c(N4CCCCC4)c(N)n3c2=O)cc1 | – | > 100
45 | O=C(O)c1c2c(cc3c(=O)c4ccccc4[nH]c13)CCCC2 | – | > 100
46 | CN1CCN(CCCOc2ccc3nc(Nc4ccc(F)c(F)c4)ccc3c2)CC1 | 2.35 | 7.05
47 | O=C(O)COc1ccc(OCC(=O)O)cc1 | 3.64 | 24.1
48 | COc1cc(S(=O)(=O)Nc2ccc(-c3csc(N4C(=O)C(Cl)C4c4ccccc4O)n3)cc2)ccc1Cl (configuration not stated) | – | > 100
49 | CC12OC(C(=O)C13CC3)C1C(=O)c3c(O)ccc(O)c3C(=O)C12 (configuration not stated) | 19.3 | 58.5
50 | O=C1OCC2=C1C(c1cccc(C(F)(F)F)c1)c1cc3c(cc1N2CCO)OCCO3 (configuration not stated) | 2.3 | > 33.3
51 | COC(=O)[C@@H](NS(=O)(=O)CC12CCC(CC1)C2(C)C)C(C)(C)C | – | > 100
52 | O=C1CC(c2cccc(Cl)c2)Oc2ccccc21 (configuration not stated) | – | > 100

Row | SMILES | GI50 [µM] | TGI [µM]
53 | O=[N+]([O-])c1cc(/C=N\NS(=O)(=O)c2ccc(Cl)cc2)c(O)c([N+](=O)[O-])c1 | – | > 100
54 | O=C(Nc1ccc(-n2cc(-c3ccncc3)c(-c3ccc(O)c(Cl)c3)n2)cc1)c1ccc(Cl)c(C(F)(F)F)c1 | 13.8 | > 50
55 | NC1=NC(SCc2ccccc2CCl)c2ncn(Cc3ccccc3CCl)c2N1 (configuration not stated) | 2.33 | 6.09
56 | COc1ccc2c(c1O)[C@@]13CCCC=C1[C@@H](C2)[N+](C)(C)CC3 | – | > 100
57 | [N-]=[N+]=Nc1nc2ccccc2c(N=[N+]=[N-])c1Cl | – | > 100
58 | O=C1C=CC(=O)c2c(O)c(N3CCOCC3)c(Cl)c(O)c21 | – | 3.14
59 | CCC[CH2][Sn]([CH2]CCC)([CH2]CCC)/[C](=C/[Si](C)(C)c1ccccc1)c1ccc2c(c1)OCO2 | 28 | > 100
60 | CS(=O)(=O)c1ccc(COP(N)(=O)N(CCCl)CCCl)cc1 (configuration not stated) | – | > 100
61 | CCOc1ccc2nc3nc(=O)[nH]c(C)c3c(NC(C)(CO)CO)c2c1 | – | > 100
62 | Cc1ccc(N2C(=O)C3CSCN3C2=O)cc1 (configuration not stated) | – | > 100
63 | C=CCC12CC(=O)CCC1c1ccc(OC)cc1C2=O (configuration not stated) | – | > 100
64 | O=CC(O)C(O)C(O)C(O)COC(=O)NCCCCC(=O)C(F)(F)C(F)(F)C(F)(F)C(F)(F)C(F)(F)C(F)(F)C(F)(F)F (configuration not stated) | – | > 100
65 | N#C/C(=C/N1CCN(C(=O)c2ccco2)C1=S)C(=O)Nc1ccc(Cl)cc1 | 28.6 | > 50
66 | Cc1ccccc1-n1c(=S)[nH]c2c(sc(=O)n2-c2ccccc2C)c1=O | – | > 100
67 | CN1CCN=C1c1nnn(-c2ccc([N+](=O)[O-])cc2)c1-c1ccccc1 | – | > 100
68 | COc1ccc(Br)c(CN2CCc3ccccc32)c1OS(=O)(=O)c1ccc(C)cc1 | – | > 100
69 | C=CC1C(CC2OC(CO)C(O)C(O)C2O)OC=C2C(=O)OCCC21O (configuration not stated) | 17.7 | 88.7
70 | OCCCCC#Cc1ccccc1C#Cc1cccnc1 | 26.8 | > 100
71 | CCCC(O)c1cn(-c2cccc(S(=O)(=O)O)c2)nn1 (configuration not stated) | – | > 100
72 | C1CSC[C@H]2COC[C@@H](CSCCS1)S2 | – | > 100
73 | O=C1NC(=O)C(=Cc2cn(Cc3ccccc3)c3ccccc23)C(=O)N1 | 18.8 | > 66.7
74 | CC(C)(C)c1cc(OCc2nnc3sc(Cc4ccccc4)nn23)c(Cl)cc1OCc1nnc2sc(Cc3ccccc3)nn12 | – | > 100
75 | CCc1ccc2oc(=O)ccc2c1 | – | > 100
76 | Cc1ccc2oc(=O)c3c(O)c4cccc(OC5OC(C)C6O[C@@H](c7ccccc7)OC6C5OC5OC(C)C(O)C(O)C5O)c4c4oc(=O)c1c2c34 (some centres not stated) | – | 2.3
77 | CCCCNS(=O)(=O)c1ccc(-c2ccc3c(c2)-c2ccc(S(=O)(=O)NCCCC)cc2S3(=O)=O)cc1 | – | > 100
78 | COc1cc(Cc2c(C)cc(OC)c3[nH]c4ccccc4c23)cc2c1[nH]c1ccccc12 | 7.25 | 24.1

Row | SMILES | GI50 [µM] | TGI [µM]
79 | O=C1C=CC2(O[C@H](C3CCCCC3)[C@@H](C3CCCCC3)O2)C(SC(=O)c2ccccc2)C1 (some centres not stated) | – | 16.9
80 | CC(OP(=O)(O)O)C(N)C(=O)O (configuration not stated) | – | > 100
81 | Oc1cccc2c(Br)ccnc12 | – | 32
82 | N#CC1=C(N)NC(N2CCOCC2)=NC12Nc1ccccc1O2 (configuration not stated) | > 100 | > 100
83 | CCCCCCCCCCCNC=O | – | > 100
84 | Cc1ccc(-n2nncc2[Si](C)(C)C)s1 | – | > 100
85 | CC(C)(C)c1ccc(C2CC(=O)C3=C(C2)Nc2ccccc2N(C(=O)c2ccccc2Cl)C3c2ccc(F)cc2)cc1 (configuration not stated) | > 100 | > 100
86 | Nc1c(C(=O)c2cccc(C(O)CO)c2)cnn1-c1ccc(F)cc1 (configuration not stated) | > 25 | > 25
87 | Cc1cc2nc3ccccc3n2c2ccccc12 | – | > 10
88 | CCOC(=O)C1CCC(=O)N1C(=O)c1cccc(Cl)c1 (configuration not stated) | – | > 100
89 | CC(C)=Cc1cc(C)c2ccc(C)c3c2c1C(C)=C(O)C3=O | 25.5 | 98.7
90 | O=S(=O)(/N=S(/Nc1ccccc1)C(F)(F)Cl)c1ccccc1 (configuration not stated) | – | > 100
91 | CN(C)CCN1C(=O)c2cccc3c(/C=C/CN4C(=O)c5cccc6cccc(c56)C4=O)ccc(c23)C1=O | > 100 | > 100
92 | CCOC(=O)[C@@]12C(C)=CC(=O)O[C@]1(C)C1C(=O)NC(=O)C12 (some centres not stated) | – | > 100
93 | CN1CCC(c2c(O)cc(O)c3c(=O)cc(-c4ccccc4Cl)oc23)C(O)C1 (configuration not stated) | – | > 100
94 | COc1ccc(/C=C2\CCCc3ccccc3C2=O)cc1 | – | 22.5
95 | CCOC(=O)c1c(-c2ccccc2)[n+](=O)c2cc(F)c(F)cc2n1[O-] | 1.71 | 3.53
96 | Cc1nc2ccc(Cl)cc2c2c1CCO2 | – | > 100
97 | Cc1cc(Cl)cc2c1NC(=O)C2(O)CC(=O)c1ccc(Br)cc1 (configuration not stated) | – | > 100
98 | CC(c1ccccc1)n1cncc1C(=O)NN1CCN(C)CC1 (configuration not stated) | – | > 10
99 | O=C1C(Cl)=C(Cl)C(=O)N1c1ccc(Cl)c(Cl)c1Cl | – | > 100
100 | Oc1ccc(Cl)cc1-c1cc(-c2ccccc2)nc(=S)[nH]1 | – | > 100
101 | CC(C)(C)OC(=O)C(C#N)C(=O)c1ccc(C(=O)O)[nH]1 (configuration not stated) | – | > 100
